Laboratory results as given in the supplement of paper PMC3334620.
In all, about 33,000 sequences were measured (“E-score (-0.5 to 0.5)”: median about -0.016, highest 2% from about 0.31 on). Some of the results follow.

What follows are sequences tested against Cst6 (UniProt P40535) (assay: PBM E-score (8-mer binding enrichment) (E-score (-0.5 to 0.5)); higher = stronger / more preferred TF binding; most listed sequences are background and not binding sites). Conditions: protein concentration: 200 nM; construct: GST-DNA-binding domain.
How it was run: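 Detection of bound protein used fluorescent anti-GST, with scans normalised by masliner. The proteins were GST-tagged yeast transcription factors applied at about 100-200 nM to universal all-10-mer Agilent arrays made double-stranded by primer extension. Each ungapped eight-base word, pooled with its reverse complement, was scored with an E-score from the Universal PBM Analysis Suite.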

Sequence | PBM E-score
GCCTTTTA | 0.042
ACTAAAAA | 0.115
CGCCTCGC | 0.168
CGCCCGTA | -0.322
ACCACGAG | -0.0646
AGCTTGTC | -0.0644
AATGATCG | 0.0987
ATTTATAG | 0.106
ATGGGACA | -0.204
GCACGGCC | 0.23
ACTATGAT | 0.161
ACATTAGC | 0.0763
CATTAGAA | 0.172
ACTTACTC | -0.0736
CATAAGTA | -0.0415
CGCCTGAG | -0.0809
GAAATAAA | 0.251
CGACCGCG | -0.178
ACACACCT | 0.0393
AATGGTAA | 0.0856
CAAACTGA | 0.048
CCACCCCA | -0.0583
CGGACGCA | -0.0966
ATATTACG | 0.415
GGGCACCC | -0.255

Sequence | PBM E-score
ACCAGTAT | -0.143
TACCACTA | -0.0366
AAGAAACA | 0.225
CAGGACAG | -0.178
ATCAAATC | 0.192
AATTGAGA | 0.193
CCGATTAC | -0.0622
GAGGCCAA | -0.158
GATGGCGA | 0.00313
AGAATACA | 0.142
AGGGCAGG | -0.288
CGGGAGGA | -0.212
ACCTGGCA | -0.218
ATCTTATG | 0.112
ACTGGGTA | -0.0366
AAATTTCA | -0.0471
GTAGACCA | -0.102
AATATCGT | 0.256
TGCTAACA | 0.0134
CGTTTCAA | 0.066
ATTGGATA | 0.129
AAAGCAAC | 0.001
AACAGTCG | 0.0287
GGGGATAA | -0.0964
CCCTTCGC | -0.231

Sequence | PBM E-score
ACTCCGGG | -0.111
TCTAGCCA | -0.0556
AAATGTAT | 0.218
GGTCTTCA | -0.247
CAAGCCGA | 0.0563
AACATTAT | 0.229
CAGATGTA | -0.105
AAGCACAG | 0.104
CGGGTTCA | -0.134
CATATAAC | 0.151
ACCCCACT | -0.194
ACAGTATG | -0.048
AGTCCACA | -0.0918
CACTTCCA | 0.116
AGCGCCTC | 0.0152
TGCTGACA | 0.0293
CGCAAAAA | 0.136
CAAGAATC | 0.0835
ATCAACGA | 0.0315
CAGGACAC | -0.116
TATAATCA | 0.308
AACAACCG | 0.0738
AAATATAT | 0.27
ACATTGCG | 0.0641
AACACCCA | -0.246

Sequence | PBM E-score
GCGCTGTA | -0.0219
GCACGAAA | 0.185
ATTCGTGA | 0.2
GAGTGCCA | -0.349
ATAGAGAT | 0.123
GCAGCCGA | -0.053
ATCATATC | 0.291
GACAATGA | -0.0231
GCCAAGTA | -0.208
CGCTACTA | 0.0388
CTTGACTC | -0.223
GCTGTGGA | -0.178
ACAGACGG | -0.0429
AAATGGCC | -0.0934
ACTTACGG | 0.147
ATGAGGCC | -0.179
AGCCGATA | -0.0664
GGTCTGAA | 0.0147
GTAGAAAA | 0.176
TGATCTAA | 0.247
AGGCTTCC | -0.0849
CCCGTGAA | -0.158
TTGGTAAA | 0.174
GAATCGCC | -0.0915
CGGATGTA | -0.0158

Sequence | PBM E-score
AGGAGGCA | -0.178
ATACACAC | 0.00224
AGTCGTGG | -0.165
GAACAAAC | 0.239
AACATCAC | 0.295
GGAATCGA | -0.114
GTATCACA | 0.245
TTACAGAA | 0.0112
CACGGTTA | 0.153
CCATAGAA | -0.085
CAAATTCC | 0.0681
CAAAGGGA | -0.0363
TGCGTTAA | 0.0114
ACGGCGGA | 0.0799
AGTACCAA | 0.157
CCGGGCCC | -0.179
AGCACGTC | 0.0785
CCCTACTC | 0.0563
AATCTACA | 0.186
AGTGACAC | 0.274
CCCCCTTA | -0.368
AGCTTGAC | -0.144
GAATCACA | 0.0993
AACCTATC | -0.142
AAAGCTCT | -0.384

Sequence | PBM E-score
CTTGGCTC | -0.106
AGCGGAGG | -0.226
GGCGTTAC | 0.0786
ACCTTAGG | -0.178
ACGTAGGC | 0.0825
AGATACCG | 0.143
CTTACATA | 0.25
CAATCGTC | 0.19
ACGAAGGG | -0.0683
CCGTCACA | 0.139
TACTTTCA | 0.0423
AGAAGCCC | -0.197
CATAGGTC | -0.0833
GGGCCCCA | -0.256
CAAGTACG | -0.114
AGTCCTCA | -0.103
ATCCTGCA | 0.171
CGCAGACG | 0.00129
GACCGATC | -0.236
ATTGAATG | 0.0816
AAGGTCCA | -0.287
GTGTTGAA | 0.0169
CCGTATCG | -0.175
CCGCGCAG | 0.0336
GGGCCACA | -0.162

Sequence | PBM E-score
CCGTCGTC | -0.0979
ATTCGCGC | 0.119
CAGACGAG | -0.16
CGCTTAAC | 0.00861
ATCCGCCG | 0.188
AGTTGTTA | 0.116
AAGCGTGT | -0.0703
AGCCAGTG | -0.171
TCGGGTCA | -0.143
CGCTATAA | 0.0251
CCAAATGC | -0.102
AGTACTAT | -0.061
ATTACTCA | 0.133
ACTATGCC | 0.0934
CCCTGCGG | -0.252
AACACTCT | 0.085
ACAATGTC | 0.0515
AAAAGTGG | 0.112
CGTGACTA | 0.11
CTAATCGA | 0.0311
AATACCGA | -0.121
ACTCTGAA | 0.091
